Assay results reported in the supplement of paper PMC11417369.
± gives the standard deviation of the averaged measurements. The list shows a part of the results.

The sequences below were run on PfAP2-EXP AP2 domain (GST-tagged) (assay: gcPBM binding intensity (ln(normalized median fluorescence intensity)); higher = stronger DNA binding).
Summary of the method: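 An Agilent 4 × 180k array carrying primer-extended double-stranded 36-bp intergenic genomic probes and negative controls received GST-tagged P. falciparum DNA-binding domains expressed in E. coli, about 25 μg on average, for 1 h. The binding buffer contained 1× PBS, 1% milk, 0.2 mg/ml BSA, 0.5% salmon testes DNA and 0.03% Triton X-100. Binding intensity is the top Masliner-normalised natural-log median intensity across replicate spots of either probe orientation, read after Alexa488 anti-GST antibody staining and a 488 nm scan.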

| Sequence | gcPBM binding intensity (ln) |
| --- | --- |
| AAATATATTATATGTACACACAAAATTAAGGGATAT [CACACA_site1375] | 9.06 ± 0.28 |
| ATCAATACTTTTTTGGGTACATAAATATATATATAT [XGTACX_site8436] | 9.99 ± 0.18 |
| GTGTTTGAAAATAAAGCATGCAAATATATTTGAAAT [TGCATGCA_site386] | 9.37 ± 0.69 |
| AAAATAATAAATAAATGTACATATATATATATATAT [XGTACX_site3078] | 10.2 ± 0.47 |
| TTTTTTTTGTTCATTGTGCACATTGCTTGCATGGAA [GTGCAC_site9693] | 9.14 ± 0.29 |
| ATAAGATTATACAATTGTACGTTGTTCAAGATAAGG [XGTACX_site191] | 8.64 ± 0.4 |
| TCTTATTCAAACGTAAAACGAAGAAGAAAAAAAAAA [CACACA_negctrl_site149] | 8.49 ± 0.41 |
| ATATACTATATTTTAACACACAAAAAAAAAAAATAT [CACACA_site1091] | 8.59 ± 0.49 |
| AAATTATATATATTACGTACATAGAACTTTACAGAA [XGTACX_site6646] | 8.53 ± 0.3 |
| ATGTTACACCGACACACACACATAAAAAAACAAAAA [CACACA_site5750] | 8.61 ± 0.64 |
| ATAAATAAATAAATAAATAAATATACATATACATAT [CACACA_negctrl_site205] | 8.33 ± 0.37 |
| AGCATTTTAAGTTATACACACATTTTGAATCTATAT [CACACA_site7599] | 8.6 ± 0.4 |
| AAGAAATAAAAAGAATGTACACAATATGTATTATAA [XGTACX_site4733] | 8.68 ± 0.25 |
| TGGACAATTGTTTATTGTACTTAAATTTTATGTTCT [XGTACX_site8974] | 8.19 ± 0.34 |
| TTGAAAAATGAGCACACACACAAATACATACATATT [CACACA_site3231] | 8.6 ± 0.45 |
| TATCCATATTTGTTCACACACACACCGATTTATATA [CACACA_site5888] | 8.99 ± 0.46 |
| CAAAAAACAACAGATCGTACAAAATATTATATATAT [XGTACX_site2285] | 8.89 ± 0.24 |
| TTTTAACAAAAAAAAAGAAAAGAAAAGAAAATAATA [XGTACX_negctrl_site530] | 8.41 ± 0.61 |
| TTAACTCTGGAGAAAAGTACATAGTATCTGGTAACA [XGTACX_site4941] | 8.54 ± 0.42 |
| TATATTTATATCCACTTCGTTTAACGCACAGATATA [CACACA_negctrl_site954] | 8.93 ± 0.23 |
| TGAGATATAAAAATATGTACTTATGTATAAATATTT [XGTACX_site7746] | 8.24 ± 0.35 |
| CCAAATTTATTTTGTAGTACTCCGTATAGATCAACA [XGTACX_site7945] | 8.48 ± 0.35 |
| ATTATAAAAATATATTGTACACAAAAATGTTTATAT [XGTACX_site5066] | 8.21 ± 0.25 |

| Sequence | gcPBM binding intensity (ln) |
| --- | --- |
| AAGTTTTTTTTTAACACACACATAATAAAATAAATA [CACACA_site446] | 8.46 ± 0.31 |
| ACTATCATTCATAGGTGTACCTAAATATATATATAT [XGTACX_site1696] | 9.96 ± 0.18 |
| GATAATTACGGACACACACACACACGCACAACTAAA [CACACA_site7254] | 8.96 ± 0.16 |
| CGAATATATTCTAGACGTACTATATAATATATATAT [XGTACX_site4953] | 9.29 ± 0.18 |
| TCTTTTTCTTCTTATGTGCACATCAATTATGCTTCT | 9.33 ± 0.35 |
| ATAATAAAAATATATACATGCATTATTATATATATA [TGCATGCA_site799] | 8.97 ± 0.16 |
| CAACAATTTCGTCATACACACATTCAGAATATAGAT [CACACA_site7166] | 8.62 ± 0.52 |
| TTATTTCGAAGAAAATGTACATATATAAATATATAC [XGTACX_site3308] | 8.35 ± 0.41 |
| ATAATATTTTTTAATTGTACGTTCCATTTTTTTAAA [XGTACX_site1227] | 8.78 ± 0.42 |
| TTTCTTTTAATAATTAAATATTTATTTATGATTATA [TGCATGCA_negctrl_site30] | 8.27 ± 0.53 |
| TACATACATATATTATGTACATATTTTATTTTTATT [XGTACX_site1642] | 8.65 ± 0.31 |
| AAGCATACATCAAGCACACACACACCCACAGAGACA [CACACA_site4362] | 8.68 ± 0.47 |
| AAAAAAAATTCGTGTGTGCGCATATATAATATATAA | 8.94 ± 0.33 |
| ATAAATATATATATCACACATATATAATTATATATA [CACACA_site4787] | 8.46 ± 0.3 |
| TATGTAGTTTTAAAGTGTACTTATATATATTAATTG [XGTACX_site378] | 8.42 ± 0.34 |
| AATATAAATAAAAACACACACAATGGTACATATATA [CACACA_site3671] | 8.92 ± 0.37 |
| ATTGCAAGTTACTTGTGTACTTATAAGATTAAAAGA [XGTACX_site7696] | 8.77 ± 0.45 |
| TAATAATACCCAAGCACACACACACCCATATATATA [CACACA_site4831] | 8.85 ± 0.35 |
| TTTAAATCGTTAAAAACACACAAAAAAAATCAATTA [CACACA_site2519] | 8.39 ± 0.42 |
| TACTGTGATAGCACCACACACGCAAAAGTGGGTATA [CACACA_site4749] | 8.62 ± 0.4 |
| TCTATACCAGAAAAGGGTACATATTTTGGATTGAAC [XGTACX_site8402] | 8.53 ± 0.36 |
| ATTATGCACCAACACACACACACACTCCTAAAAAAT [CACACA_site8822] | 9.56 ± 0.61 |
| ATCACAAAATGGAATGTTCTATGATATATATGTATA [XGTACX_negctrl_site460] | 8.27 ± 0.44 |

| Sequence | gcPBM binding intensity (ln) |
| --- | --- |
| TGTAAATATTTATTCACACATAATCAATTAGAAAAA [CACACA_site5944] | 8.35 ± 0.56 |
| AATACAGATAATACAACACACAAGTAATATAAACCT [CACACA_site5900] | 8.8 ± 0.42 |
| TATATATATTTTTATGCACACACAAAGAAAATTTTC [CACACA_site8931] | 8.75 ± 0.18 |
| TACTTACTTACTTACTCACACACATATACAAAGAAA [CACACA_site3348] | 8.85 ± 0.11 |
| AAAAAAAAAAAAAACACACACACAATAGTATATAAA [CACACA_site957] | 8.49 ± 0.45 |
| TTGTTACTGTTTTGGTGTACAAAAAAAAAAAATATA [XGTACX_site5762] | 8.48 ± 0.31 |
| AATATATAAATCTATTGTACATAAAGAGGATAATAA [XGTACX_site1022] | 8.78 ± 0.54 |
| TATAAATACAGATACACACACACACCGATATATATA [CACACA_site5271] | 8.92 ± 0.48 |
| GATGATTATATATATACGCACACTTTTTTTTTTTTT [CACACA_site2652] | 8.69 ± 0.45 |
| ATTAAAAACGGGTGTACACATATATAAATATATATA [CACACA_site4539] | 8.88 ± 0.28 |
| AGTAGCATATTCTATTGTACATATATATATATATAT [XGTACX_site2980] | 10.2 ± 0.56 |
| TACAAAATAACTAGCACACATATGTATAAACCTATA [CACACA_site3718] | 8.69 ± 0.54 |
| TGTATAAAGATATATACACACATATTTATTTATATA [CACACA_site6493] | 8.21 ± 0.39 |
| ATATGTATATATGTATGTACGTACAAATTGTTGTAA [XGTACX_site8832] | 9.21 ± 0.39 |
| TTAATACATTAAATATGTACTTATATATCTCAACTA [XGTACX_site3997] | 8.17 ± 0.26 |
| ACCTGAAGAGTCAAACGTACAAATATTATAAAATGA [XGTACX_site3188] | 8.55 ± 0.47 |
| GTTATATTTTTTTTTTGTACATAATATTGTATTGAC [XGTACX_site6338] | 8.93 ± 0.42 |
| TTTTTTTCTTTTCAAACACACAATTGGTATATATTA [CACACA_site3320] | 8.67 ± 0.48 |
| CATAGGATTATACTTTTGGAATATTATTAAATATGT [XGTACX_negctrl_site75] | 8.35 ± 0.3 |
| TTTATTTTTTAATGTTGTACAATGTTGTTTAATCAA [XGTACX_site6489] | 8.61 ± 0.42 |
| TCATCCGTTTTAAGAAGTACATATTTGAACATATAA [XGTACX_site8040] | 8.46 ± 0.56 |
| ACATGTCAAACATTTGCACACAAAAAAATAAAAATT [CACACA_site691] | 8.52 ± 0.38 |
| AAATAACACATATATACACACATATAACTATAATAT [CACACA_site7298] | 8.62 ± 0.4 |

| Sequence | gcPBM binding intensity (ln) |
| --- | --- |
| TATATATATATGTGCACACATATATAATATGTATAA [CACACA_site715] | 9.96 ± 0.14 |
| ATATATAAAATTATATGTACATATATAATATATATA [XGTACX_site529] | 8.49 ± 0.085 |
| TATATACAAAAATGCACACGAAAAGTAATATATATA [CACACA_site4173] | 9.21 ± 0.21 |
| TATATAAAAATCAATTGTACTTTTTTTTTTTTTTTT [XGTACX_site7327] | 8.52 ± 0.16 |
| TAGAACAAATAAAACACACACATATATATATATATG [CACACA_site2768] | 8.62 ± 0.47 |
| TTTAATATGTATTTTTTTTTTTTTTTTTTTTTTTTT [XGTACX_negctrl_site440] | 9.06 ± 0.085 |
| TATAACAGGAATTATATATATATATATATATATTAT [CACACA_negctrl_site911] | 8.53 ± 0.092 |
| CTTTTTTTAGTTAGGTGTACAATTTGTTATTATTAG [XGTACX_site1507] | 8.85 ± 0.3 |
| TTTTTTTTTTTTTTTTGTACATATTTCTTATAAGTG [XGTACX_site6459] | 8.04 ± 0.32 |
| TTTTTTTTTTTTTTTTTTTTTTGTGAAACTAAGTAA [CACACA_negctrl_site273] | 7.96 ± 0.39 |
| TTTTTTTTTTTTTTTTTGCAATATATTTTAAAAAAG [CACACA_negctrl_site25] | 8.06 ± 0.48 |
| GGAAGAATATATAGGACACACATACAATAATAAATA [CACACA_site6124] | 8.89 ± 0.57 |
| AACTTCTTTTTTATAACACACAAAATATAAATACAA [CACACA_site4313] | 8.61 ± 0.4 |
| TTTTATATCTAGTTTATATTTCTTAAATAAATAAAT [GTGCAC_negctrl_site245] | 8.04 ± 0.33 |
| TAATACAAAAAGAAAAGTACATGTTAATTATTATTT [XGTACX_site2196] | 8.6 ± 0.2 |
| CAAATTAAATATTATGCATGTACCAAACATCCTACC [TGCATGCA_site35] | 8.91 ± 0.33 |
| AACATATAAATGATATGTACACACATTTATATATAT [XGTACX_site7364] | 8.73 ± 0.13 |
| AGCACAGACTAATAAACACACACATATATATATATA [CACACA_site8021] | 10 ± 0.34 |
| ATATATATATATATATGTACATATTTATTTATTTAT [XGTACX_site5161] | 10.1 ± 0.41 |
| CTCATTCTTTTTTGATGTACTTTTTTTTTTTAAGTT [XGTACX_site2875] | 8.79 ± 0.24 |
